Results from PubChem BioAssay AID360 (National Center for Advancing Translational Sciences (NCATS), 2006).
The whole screen tested about 48,000 compounds, of which about 550 (1.1%) were called active. Not shown: some 4% with an inconclusive outcome. No stated cut-off is given here; in the data, active means potency below about 15 µM; inconclusive means mostly about 16 µM to 33 µM; inactive means weaker than that. The list shows a part of the results.

Target: Lysosomal acid glucosylceramidase (Homo sapiens) (UniProt P04062)
Sequence of UniProt P04062 (P04062 whole entry, looked up): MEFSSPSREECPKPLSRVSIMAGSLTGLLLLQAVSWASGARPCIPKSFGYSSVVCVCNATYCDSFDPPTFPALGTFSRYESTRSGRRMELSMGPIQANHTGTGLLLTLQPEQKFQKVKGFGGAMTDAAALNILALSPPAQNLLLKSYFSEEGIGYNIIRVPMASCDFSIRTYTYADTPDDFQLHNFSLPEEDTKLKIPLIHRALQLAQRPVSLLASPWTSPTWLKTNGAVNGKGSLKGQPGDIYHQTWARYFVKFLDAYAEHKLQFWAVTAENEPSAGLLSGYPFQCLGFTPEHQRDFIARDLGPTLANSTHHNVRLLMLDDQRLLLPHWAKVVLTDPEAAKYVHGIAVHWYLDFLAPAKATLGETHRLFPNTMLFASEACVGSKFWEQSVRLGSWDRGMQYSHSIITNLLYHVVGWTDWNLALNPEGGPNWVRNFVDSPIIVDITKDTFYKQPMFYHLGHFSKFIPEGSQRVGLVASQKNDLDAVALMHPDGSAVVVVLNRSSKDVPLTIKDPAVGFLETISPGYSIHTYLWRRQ
Assay: Glucocerebrosidase;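 further: the screen sought inhibitors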
Settings: purified enzyme, resorufin glucoside fluorescence (screen aimed at inhibitors), 20 min
Outline: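 Normal human glucocerebrosidase (0.2 nM final) was assayed with resorufin β-D-glucopyranoside (30 uM final) in 50mM citric acid/KH2PO4, 10mM sodium taurocholate, 0.01% tween-20, pH 5.9. Compounds were titrated; fluorescence (Ex 548, Em 600) read after 20 min at RT.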
Potency means the concentration at half of the fitted maximal effect.

Potency, inactive:
COc1ccc(N(CC(=O)Nc2ccc(OC)c(Cl)c2)S(=O)(=O)c2c(C)noc2C)cc1 > 76.9 µM
COc1ccc(OC)c(S(=O)(=O)Nc2ccccc2C(=O)O)c1 > 76.9 µM
c1ccc2ncc(-n3cnnn3)cc2c1 > 76.9 µM
COCCNC(=O)c1ccccc1NC(=O)c1ccc(OC)c(OC)c1 > 76.9 µM
Cn1cnnc1SCC(=O)N1c2ccccc2-c2c(ssc2=S)C1(C)C > 76.9 µM
O=C(CSc1oc(-c2ccco2)nc1S(=O)(=O)c1ccccc1)NCC1CCCO1 (stereo unspecified) > 76.9 µM
N#Cc1cnn(Cc2ccccc2)c1/N=C/N1CCOCC1 > 76.9 µM
O=C(c1ccc(Cl)c(Cl)c1)N(Cc1ccco1)c1ccc(O)cc1
Cc1ccccc1Cn1cc(NC(=O)c2cc(-c3cccs3)on2)cn1 > 76.9 µM
O=C(Nc1cccc(-c2nc3ccccc3[nH]2)c1)c1cccc(NC(=O)c2ccco2)c1
C=CCn1c(CCC(=O)O)ccc1-c1ccc(OC)cc1 > 76.9 µM
COc1ccc(COn2c(=O)c(C)[n+]([O-])c3ccccc32)cc1OC > 76.9 µM
O=C(Nc1ccc(N2CCN(C(=O)c3ccco3)CC2)cc1)c1ccccc1F > 76.9 µM
COc1ccc(Br)cc1-c1nc(C)c(C(C)=O)n1O > 76.9 µM
C=C(c1ccc(O)cc1)c1ccc(O)cc1 > 76.9 µM
Cc1nnc(NC(=O)c2ccc(-c3cccc(C(F)(F)F)c3)o2)s1 > 76.9 µM
Cc1ccccc1Nc1nc(N)nc(COC(=O)C(NC(=O)c2ccco2)C(C)C)n1 (stereo unspecified) > 76.9 µM
O=C(Oc1ccc2c(c1)OCO2)c1ccncc1 > 76.9 µM
O=C(Nc1cccc(C(=O)N2CCOCC2)c1)c1ncn[nH]1 > 76.9 µM
Cc1ccc(S(=O)(=O)Nc2ccc(S(=O)(=O)N3CCCC3)cc2)cc1 > 76.9 µM
CCC(C)[C@H](NC(=O)NC1CCCc2ccccc21)C(=O)O (stereo partly specified) > 76.9 µM
CCCCN1CCCCC1C(=O)Nc1c(C)cc(C)cc1C (stereo unspecified) > 76.9 µM
Cc1ccc(OCC(=O)n2cnnc2N)c(C)c1 > 76.9 µM
O=c1c(O)c(-c2cccs2)oc2ccccc12 > 76.9 µM
C=CCn1c(SCc2nc3c(c(=O)[nH]c(=O)n3CCCC)n2CCC)nnc1-c1ccccc1 > 76.9 µM
O=C(C1CCCCC1)N1CCN(c2ccccc2F)CC1 > 76.9 µM
